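1) Cells in 96-well plates. 2) Compound, 48 h, 5 concentrations. 3) Linear interpolation between surrounding doses. 4) Unreached endpoint = highest concentration. Here, GI50 denotes the concentration required for 50% inhibition of growth. Definition used: TGI = concentration required for complete inhibition of growth.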 Where only a bound is given, the exact number is not on record here.

The subject of the test is NCI-H322M lung. The experiment in a line: inhibition of tumour cell growth, NCI panel, 48 h.
On to `O=C(C/C(=N/O)C(=O)NC1=C(Cl)C(=O)c2ccccc2C1=O)CC(c1ccccc1)c1c(O)c2ccccc2oc1=O` (configuration not stated), for which the TGI stood at 66 µM.
As for `C[C@H](OCc1ccccc1)C(=O)N1CCS(=O)(=O)N2CCC[C@@H]2C1=O`, the TGI is > 100 µM.
Same read-out and setting: the value for `COC(=O)c1cc(=O)[nH]c(=O)[nH]1` was > 100 µM.
Consider `O=C(N/N=C/C=C/c1ccc([N+](=O)[O-])o1)c1cc2ccccc2cc1O`, for which the GI50 is 2.36 µM and the TGI was 9.84 µM.
Regarding `CCOc1cc2c(C(=O)CC)c(O)ccc2o1`, the TGI is > 100 µM.
Turning to `Cc1nc(Nc2ccccc2)sc1C(=O)CC(=O)C(=O)Nc1c(C(C)C)cccc1C(C)C`, the TGI was > 100 µM.
Take `Cc1c(C(=O)Nc2ccccc2)sc2ncn(Cc3cccc(Cl)c3)c(=O)c12`: the GI50 was 47.2 µM and the TGI is > 100 µM.
`Cc1cccc(/C=N/NC(=S)N2CCCC2)n1`: the GI50 is 2.1 µM and the TGI was 0.571 µM.
On to `Cc1ccccc1OCC(O)CN1CCN(c2ccc(Cl)cc2)CC1` (configuration not stated), for which the GI50 is 23.4 µM and the TGI was 40 µM.
With `O=C1NC(=O)C(C(CC(=O)c2ccc([N+](=O)[O-])cc2)c2ccccc2)C(=O)N1` (configuration not stated), the TGI was > 100 µM.
Compound `Cc1ccccc1C1OC(=O)c2ccc3ccccc3c21` (configuration not stated) yielded a TGI of 13.7 µM.
On to `CCCCCCC[CH2][Sn]([CH2]CCCCCCC)([O]c1cccc2cccnc12)[O]c1cccc2cccnc12`, for which the GI50 is 2.98 µM and the TGI came to 7.97 µM.
On to `O=C(NCCCCCCCCCCCCNC(=O)Nc1cccc2ccccc12)Nc1cccc2ccccc12`, for which the TGI was found to be 32.9 µM.
Consider `Cc1cc(C)nc(SC2=C(Nc3ccc(C)c(Cl)c3)C(=O)N(Cc3ccccc3)C2=O)n1`, for which the GI50 was > 160 µM and the TGI is > 160 µM.
As to `NC(=O)NNc1nc(-c2ccccc2)cs1`, the TGI is > 100 µM.
As to `OC(CCNC12CC3CC(CC(C3)C1)C2)c1ccccc1` (configuration not stated), the TGI is > 100 µM.
Take `O=C1c2cc3c(cc2[C@@H]2[C@H]1c1ccc([N+](=O)[O-])cc1C(=O)N2CCCBr)OCO3`: the GI50 was 0.076 µM and the TGI turned out to be 6.02 µM.
As for `CN(C)c1ccc(/C(F)=C(F)/C(F)=C(F)/C(F)=C(\F)c2ccc(Br)cc2)cc1`, the TGI was > 87.3 µM.
Take `CCNCCCn1c2c(c3ccc(Cl)cc3c1=O)C(=O)c1cc(OC)cnc1-2`: the GI50 is 1.08 µM and the TGI was 3.03 µM.
For `COc1ccc2c(c1)C(=O)c1ccc(OC)cc1C2=S`, the TGI is > 100 µM.
`O=S(=O)(c1ccc(NC2=NC(c3ccc(O)cc3)(c3ccccc3O)c3ccccc32)cc1)c1ccc(NC2=NC(c3ccc(O)cc3)(c3ccccc3O)c3ccccc32)cc1` (configuration not stated) registered a TGI of 23.1 µM.
`N#CC1(C#N)NC(c2cccs2)C(C#N)(C#N)NC1c1cccs1` (configuration not stated): the TGI was > 100 µM.
As to `CCN(CC)N1C(=O)[N+](CC)(CC)N=C1[O-]`, the TGI is > 100 µM.
Turning to `Cc1cc(F)ccc1S(=O)(=O)Nc1cc(-c2c(O)ccc3ccccc23)c(O)c2ccccc12`, the GI50 was 6.92 µM and the TGI worked out at 20 µM.
With `Cc1cn(C2CC3C(COCN3O)O2)c(=O)[nH]c1=O` (configuration not stated), the TGI was > 100 µM.
Regarding `CC(=O)[CH-]C(=O)c1ccccc1.CC(=O)[CH-]C(=O)c1ccccc1.CC[O-].CC[O-].[Hf+4]`, the GI50 was 26.7 µM and the TGI was > 100 µM.
Take `COc1ccc2c(CN3CCCC[C@H]3C(=O)O)cc3cc4c(cc3c2c1)OCO4`: the GI50 was 4.31 µM and the TGI was determined as 38.7 µM.
Take `O=C1NC(Nc2ccccc2)=NC(C(F)(F)F)(C(F)(F)F)N1`: the TGI was > 100 µM.
As to `CCOc1ccc(N/C(=C(/C(Cl)=C(/Cl)N(CC)CC)[N+](=O)[O-])n2nnc3ccccc32)cc1`, the TGI was > 100 µM.
In turn, `CSCCC(N)C(=O)NCCNc1ccc(NCCNC(=O)C(N)CCSC)c2c1C(=O)c1ccccc1C2=O` (configuration not stated) showed a TGI of 3.61 µM.
Regarding `CC(=O)Nc1ccc(S(=O)(=O)N/N=C/CN2C(=O)c3ccccc3C2=O)cc1`, the TGI is > 100 µM.

For the origin of these results see PubChem BioAssay (NCI).
